Results reported in a collection of fitness landscapes (doi:10.1016/j.celrep.2020.107928).
In all, about 81,000 sequences were measured (“one-hybrid fitness for binding parS DNA”: median about -0.17, highest 2% from about 0.51 on). The list shows a part of the results.

B1: Caulobacter ParB omega fusion; a variant is named by its letters at X, in order, B8GW30 (parent)
chain: MESVVVGEPGMSEGRRGLGRGLSALLGEVDAAPAQAPGEQLGGSREAPIEILQRNPDQPRRTFREEDLEDLSNSIREKGVLQPILVRPSPDTAGEYQIVAGERAWRAAQRAGLKTVPIMVRELDDLAVLEIGIIENVQRADLNVLEEALSYKVLMEKFERTQENIAQTIGKSXSHVANXMRLLXLPDEVQSYLVSGELTAXHARAIAAAADPVALAKQIIEGGLSVRETEALARKAPNLSAGKSKGGRPPRVKDTDTQALESDLSSVLGLDVSIDHRGSTGTLTITYATLEQLDDLCNRLTRGI

Variants of: B1
Test: one-hybrid fitness for binding parS DNA (scaled: cognate 1, non-cognate 0); higher = stronger binding
Conditions: with parS DNA site
In short: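 Bacterial one-hybrid selection in E. coli USO rpoZ- hisB- pyrF- with a HIS3 reporter carrying the site 19 bp from the promoter, screening Caulobacter ParB libraries with four specificity codons randomised (NNS). Cells grew 48 hours at 37°C on M9-minus-histidine plus 0.1 mM IPTG and 5 mM 3-AT. Plasmids before and after selection were Illumina-sequenced, three replicate libraries pooled, and variants under 10 reads dropped. Fitness is the log change in variant-to-wild-type read ratio, rescaled to cognate 1, non-cognate 0.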

Row | Variant | one-hybrid fitness for binding parS DNA
1 | VRQS | ≤ 0.2
2 | TFTS | ≤ 0.2
3 | SVYA | ≤ 0.2
4 | GLKI | ≤ 0.2
5 | RVMW | 0.228
6 | DFKR | ≤ 0.2
7 | NYVH | ≤ 0.2
8 | RKTE | ≤ 0.2
9 | AKRR | ≤ 0.2
10 | VSLA | ≤ 0.2
11 | LPSY | ≤ 0.2
12 | MNRG | ≤ 0.2
13 | RHYI | ≤ 0.2
14 | SLQP | ≤ 0.2
15 | LQLF | ≤ 0.2
16 | NETG | ≤ 0.2
17 | ELLD | ≤ 0.2
18 | TCKC | ≤ 0.2
19 | WHGG | ≤ 0.2
20 | YVHE | ≤ 0.2
21 | VLEG | ≤ 0.2
22 | KLGW | ≤ 0.2
23 | CMVR | ≤ 0.2
24 | TWPN | ≤ 0.2

Row | Variant | one-hybrid fitness for binding parS DNA
25 | KCPT | ≤ 0.2
26 | NINI | ≤ 0.2
27 | LHSF | ≤ 0.2
28 | PWAF | ≤ 0.2
29 | TGSV | ≤ 0.2
30 | IIRS | ≤ 0.2
31 | APPE | ≤ 0.2
32 | FYDR | ≤ 0.2
33 | RCEG | 0.915
34 | RHQT | 0.853
35 | IRIV | ≤ 0.2
36 | AAAK | ≤ 0.2
37 | QNKI | ≤ 0.2
38 | RCEM | 0.337
39 | WSAW | ≤ 0.2
40 | ETAT | ≤ 0.2
41 | KLLH | ≤ 0.2
42 | KRMN | ≤ 0.2
43 | AQFS | ≤ 0.2
44 | NDVS | ≤ 0.2
45 | LETT | ≤ 0.2
46 | SSPR | ≤ 0.2
47 | PNAG | ≤ 0.2
48 | QIRC | ≤ 0.2

Row | Variant | one-hybrid fitness for binding parS DNA
49 | IVPQ | ≤ 0.2
50 | MCYC | ≤ 0.2
51 | ANMS | ≤ 0.2
52 | ACFT | ≤ 0.2
53 | AKLT | ≤ 0.2
54 | ACWD | ≤ 0.2
55 | LTAI | ≤ 0.2
56 | LVWG | ≤ 0.2
57 | KHWK | ≤ 0.2
58 | REQC | ≤ 0.2
59 | HQGT | ≤ 0.2
60 | PKRA | ≤ 0.2
61 | VHHG | ≤ 0.2
62 | EMKE | ≤ 0.2
63 | RHFE | ≤ 0.2
64 | TQEG | ≤ 0.2
65 | KKDV | ≤ 0.2
66 | CIAL | ≤ 0.2
67 | TYVP | ≤ 0.2
68 | WHAC | ≤ 0.2
69 | GSVV | ≤ 0.2
70 | QTQC | ≤ 0.2
71 | RSWR | ≤ 0.2
72 | VKWT | ≤ 0.2

Row | Variant | one-hybrid fitness for binding parS DNA
73 | QRCS | ≤ 0.2
74 | QQVE | ≤ 0.2
75 | DLRR | ≤ 0.2
76 | ISLF | ≤ 0.2
77 | PHQV | ≤ 0.2
78 | VCHR | ≤ 0.2
79 | ETRC | ≤ 0.2
80 | GSNI | ≤ 0.2
81 | CAFR | ≤ 0.2
82 | QWCL | ≤ 0.2
83 | LTCV | ≤ 0.2
84 | TVMY | ≤ 0.2
85 | PLYR | ≤ 0.2
86 | GVTS | ≤ 0.2
87 | SCLA | ≤ 0.2
88 | EGAK | ≤ 0.2
89 | TLLI | ≤ 0.2
90 | RHVC | 0.773
91 | PEES | ≤ 0.2
92 | HRTL | ≤ 0.2
93 | EAFV | ≤ 0.2
94 | TRDL | ≤ 0.2
95 | NNCC | ≤ 0.2
96 | APWW | ≤ 0.2

Row | Variant | one-hybrid fitness for binding parS DNA
97 | VVNR | ≤ 0.2
98 | EWRT | ≤ 0.2
99 | GATQ | ≤ 0.2
100 | PKSV | ≤ 0.2
101 | CFSL | ≤ 0.2
102 | GYIS | ≤ 0.2
103 | CFAN | ≤ 0.2
104 | NIPL | ≤ 0.2
105 | TPCQ | ≤ 0.2
106 | NNGS | ≤ 0.2
107 | REAG | ≤ 0.2
108 | CVEL | ≤ 0.2
109 | RDNR | ≤ 0.2
110 | SRDL | ≤ 0.2
111 | QIID | ≤ 0.2
112 | ECTD | ≤ 0.2
113 | HIPR | ≤ 0.2
114 | AGHD | ≤ 0.2
115 | CVHP | ≤ 0.2
116 | EVMM | ≤ 0.2
117 | PCTA | ≤ 0.2
118 | KFRC | ≤ 0.2
119 | VQLA | ≤ 0.2
120 | SEPS | ≤ 0.2

Row | Variant | one-hybrid fitness for binding parS DNA
121 | GVGS | ≤ 0.2
122 | SITG | ≤ 0.2
123 | VHSN | ≤ 0.2
124 | QANC | ≤ 0.2
125 | DALR | ≤ 0.2
126 | ILYY | ≤ 0.2
127 | FMPK | ≤ 0.2
128 | RHGQ | ≤ 0.2
129 | TPYP | ≤ 0.2
130 | IKPC | ≤ 0.2
131 | NLAA | ≤ 0.2
132 | AHGS | ≤ 0.2
133 | CDTD | ≤ 0.2
134 | PTWS | ≤ 0.2
135 | GTKI | ≤ 0.2
136 | IHSQ | ≤ 0.2
137 | NCNF | ≤ 0.2
138 | WDHS | ≤ 0.2
139 | EGQA | ≤ 0.2
140 | YRRY | ≤ 0.2
141 | RMNM | 0.351
142 | PRIL | ≤ 0.2
143 | YIWG | ≤ 0.2
144 | ELPA | ≤ 0.2

Row | Variant | one-hybrid fitness for binding parS DNA
145 | CTPC | ≤ 0.2
146 | RRFW | ≤ 0.2
147 | VRNC | ≤ 0.2
148 | LFRQ | ≤ 0.2
149 | AAWG | ≤ 0.2
150 | LSHI | ≤ 0.2
151 | MAQY | ≤ 0.2
152 | RPIF | ≤ 0.2
153 | QICS | ≤ 0.2
154 | IRLD | ≤ 0.2
155 | MHAL | ≤ 0.2
156 | AMAW | ≤ 0.2
157 | QEPL | ≤ 0.2
158 | PEVG | ≤ 0.2
159 | FTCV | ≤ 0.2
160 | YVYW | ≤ 0.2
161 | QSWT | ≤ 0.2
162 | QIRL | ≤ 0.2
163 | LRGW | ≤ 0.2
164 | QGRG | ≤ 0.2
165 | MYGE | ≤ 0.2
166 | MPSL | ≤ 0.2
167 | APVF | ≤ 0.2
168 | QSTE | ≤ 0.2

Row | Variant | one-hybrid fitness for binding parS DNA
169 | LAQT | ≤ 0.2
170 | RGWI | ≤ 0.2
171 | ALGC | ≤ 0.2
172 | DLSF | ≤ 0.2
173 | VETG | ≤ 0.2
174 | NAPV | ≤ 0.2
175 | NKHR | ≤ 0.2
176 | WSDW | ≤ 0.2
177 | RKHK | ≤ 0.2
178 | KGQV | ≤ 0.2
179 | HDFF | ≤ 0.2
180 | CYCR | ≤ 0.2
181 | MRFT | ≤ 0.2
182 | FCTS | ≤ 0.2
183 | GRLT | ≤ 0.2
184 | DGDN | ≤ 0.2
185 | ICLN | ≤ 0.2
186 | MRTR | ≤ 0.2
187 | KFFW | ≤ 0.2
188 | RQGR | ≤ 0.2
189 | TRPS | ≤ 0.2
190 | LITI | ≤ 0.2
191 | MHTS | ≤ 0.2
192 | ASFW | ≤ 0.2

Row | Variant | one-hybrid fitness for binding parS DNA
193 | RPRW | ≤ 0.2
194 | CPME | ≤ 0.2
195 | HTDC | ≤ 0.2
196 | SNRG | ≤ 0.2
197 | RVLS | 1.03
198 | KGNH | ≤ 0.2
199 | PARW | ≤ 0.2
200 | VVTT | ≤ 0.2
201 | CDYR | ≤ 0.2
202 | CTCA | ≤ 0.2
203 | LSEC | ≤ 0.2
204 | TART | ≤ 0.2
205 | HKYR | ≤ 0.2
206 | RFQE | ≤ 0.2
207 | VYRG | ≤ 0.2
208 | DLKP | ≤ 0.2
209 | SNGD | ≤ 0.2
210 | TKKM | ≤ 0.2
211 | PHSL | ≤ 0.2
212 | QVNY | ≤ 0.2
213 | TSTA | ≤ 0.2
214 | WYRV | ≤ 0.2
215 | YFNS | ≤ 0.2
216 | ARLT | ≤ 0.2

Row | Variant | one-hybrid fitness for binding parS DNA
217 | HYRA | ≤ 0.2
218 | PQAF | ≤ 0.2
219 | SFEA | ≤ 0.2
220 | GYDS | ≤ 0.2
221 | LISS | ≤ 0.2
222 | QQDV | ≤ 0.2
223 | TKQS | ≤ 0.2
224 | DRNN | ≤ 0.2
225 | YMMS | ≤ 0.2
226 | IYQR | ≤ 0.2
227 | TFRF | ≤ 0.2
228 | VCLC | ≤ 0.2
229 | QMGN | ≤ 0.2
230 | KVLM | ≤ 0.2
231 | PGTD | ≤ 0.2
232 | LEPN | ≤ 0.2
233 | AQKR | ≤ 0.2
234 | SCST | ≤ 0.2
235 | NDSA | ≤ 0.2
236 | GWVA | ≤ 0.2
237 | HHPH | ≤ 0.2
238 | VWQR | ≤ 0.2
239 | DLGG | ≤ 0.2
240 | WKFC | ≤ 0.2

Row | Variant | one-hybrid fitness for binding parS DNA
241 | TVNV | ≤ 0.2
242 | KRHN | ≤ 0.2
243 | CILR | ≤ 0.2
244 | YWRE | ≤ 0.2
245 | LAGR | ≤ 0.2
246 | EVVI | ≤ 0.2
247 | QCIT | ≤ 0.2
248 | HCVV | ≤ 0.2
249 | PHQR | ≤ 0.2
250 | EANR | ≤ 0.2
251 | ATGI | ≤ 0.2
252 | HERT | ≤ 0.2
253 | MWPC | ≤ 0.2
254 | FVIS | ≤ 0.2
255 | YRVA | ≤ 0.2
256 | VVNL | ≤ 0.2
257 | DPAR | ≤ 0.2
258 | TPPS | ≤ 0.2
259 | AYFW | ≤ 0.2
260 | HHKG | ≤ 0.2
261 | SSQR | ≤ 0.2
262 | DRNP | ≤ 0.2
263 | GTFS | ≤ 0.2
264 | SMCH | ≤ 0.2

Row | Variant | one-hybrid fitness for binding parS DNA
265 | NLAL | ≤ 0.2
266 | KAQH | ≤ 0.2
267 | AVVR | ≤ 0.2
268 | RYRT | 0.737
269 | QTGV | ≤ 0.2
270 | AMFD | ≤ 0.2
271 | FIKT | ≤ 0.2
272 | YGDG | ≤ 0.2
273 | CFKT | ≤ 0.2
274 | YCLE | ≤ 0.2
275 | ACPG | ≤ 0.2
276 | TRQL | ≤ 0.2
277 | YHLM | ≤ 0.2
278 | PNRE | ≤ 0.2
279 | QKEL | ≤ 0.2
280 | RWHN | 0.301
281 | HRLS | 0.387
282 | RKDH | 0.231
283 | KLMA | ≤ 0.2
284 | GARK | ≤ 0.2
285 | GNYC | ≤ 0.2
286 | DMPV | ≤ 0.2
287 | DNLL | ≤ 0.2
288 | HEAS | ≤ 0.2

Row | Variant | one-hybrid fitness for binding parS DNA
289 | VEPL | ≤ 0.2
290 | HGRK | ≤ 0.2
291 | SRCA | ≤ 0.2
292 | GMTS | ≤ 0.2
293 | LRNT | ≤ 0.2
294 | HYSL | ≤ 0.2
295 | AYKY | ≤ 0.2
296 | MNAP | ≤ 0.2
297 | RTPL | ≤ 0.2
298 | SVQT | ≤ 0.2
299 | VMRG | ≤ 0.2
300 | VGYR | ≤ 0.2
301 | HCVE | ≤ 0.2
302 | SRSQ | ≤ 0.2
303 | VSMF | ≤ 0.2
304 | LYNY | ≤ 0.2
305 | SWHT | ≤ 0.2
306 | YQPN | ≤ 0.2
